Measured values: paper PMC4340293
Results are given in words; binding and its absence hold for the method and conditions named. For some of these results: In cells and extracts the contact can be indirect. Some results given as binding are weak or reduced against the parent protein; the word gives no strength. For some of these results: Sequences can lack the tags named with a protein. Each block holds one molecule with its values, some of them ahead of it.

Experiments:
[1] = biological target: T1, 60S acidic ribosomal protein P0 (Os60sP0p), endogenous in rice tissues (rice (endogenous in TP309 tissues)) (UniProt P41095); test: co-IP; crude protein extract of rice immature endosperm in RIPA buffer; antiserum against OsSec18 or Os60sP0p, Protein A agarose, 4°C; Western blot with antisera against OsSec18, Os60sP0p or Os60sP1p
T1 sequence: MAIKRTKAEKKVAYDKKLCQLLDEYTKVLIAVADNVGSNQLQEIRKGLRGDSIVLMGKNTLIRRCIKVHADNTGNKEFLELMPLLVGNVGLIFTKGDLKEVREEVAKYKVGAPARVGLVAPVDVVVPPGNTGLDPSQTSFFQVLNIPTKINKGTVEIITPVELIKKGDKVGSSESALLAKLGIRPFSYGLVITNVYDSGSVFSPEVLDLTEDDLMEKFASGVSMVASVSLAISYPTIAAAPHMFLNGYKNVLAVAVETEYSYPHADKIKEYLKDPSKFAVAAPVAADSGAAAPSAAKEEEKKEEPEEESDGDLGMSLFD

[2] = biological target: OsSec18, full length (yeast two-hybrid fusion) (rice) (UniProt Q0DGP6); test: two-hybrid; yeast AH109, constructs in pGBKT7 and pGADT7; growth on SD medium lacking Leu, Trp, His (and Ade)
[3] = biological target: T2, OsSec18 N-terminus (1-260 aa) (yeast two-hybrid fusion) (rice) (UniProt Q0DGP6); test: as above
T2 sequence: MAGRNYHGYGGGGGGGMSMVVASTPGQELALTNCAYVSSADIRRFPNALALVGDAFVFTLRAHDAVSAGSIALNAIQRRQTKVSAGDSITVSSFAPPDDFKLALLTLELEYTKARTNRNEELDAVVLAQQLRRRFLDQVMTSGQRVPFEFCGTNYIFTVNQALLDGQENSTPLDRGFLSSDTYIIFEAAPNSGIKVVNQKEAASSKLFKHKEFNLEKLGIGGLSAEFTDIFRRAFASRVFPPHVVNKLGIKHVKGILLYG

[4] = biological target: OsSec18, endogenous in rice tissues (rice (endogenous in TP309 tissues)) (UniProt Q0DGP6); test: SEC; crude protein extract of rice immature endosperm on a Sepharose 300 column; the 290-kDa fraction that held OsSec18 (anti-OsSec18 serum) separated by SDS-PAGE, bands identified by MALDI-TOF mass spectrometry
[5] = biological target: OsSec18, endogenous in rice tissues (rice (endogenous in TP309 tissues)) (UniProt Q0DGP6); test: co-IP; crude protein extract of rice immature endosperm in RIPA buffer; antiserum against OsSec18 or Os60sP0p, Protein A agarose, 4°C; Western blot with antisera against OsSec18, Os60sP0p or Os60sP1p
[6] = biological target: OsSec18, endogenous in rice tissues (rice (endogenous in TP309 tissues)) (UniProt Q0DGP6); test: co-IP; crude protein extract of rice stem
[7] = biological target: OsSec18, endogenous in rice tissues (rice (endogenous in TP309 tissues)) (UniProt Q0DGP6); test: co-IP; crude protein extract of rice leaf
[8] = biological target: T3, OsSec18 C-terminus (470-744 aa) (yeast two-hybrid fusion) (rice) (UniProt Q0DGP6); test: two-hybrid; yeast AH109, constructs in pGBKT7 and pGADT7; growth on SD medium lacking Leu, Trp, His (and Ade)
T3 sequence: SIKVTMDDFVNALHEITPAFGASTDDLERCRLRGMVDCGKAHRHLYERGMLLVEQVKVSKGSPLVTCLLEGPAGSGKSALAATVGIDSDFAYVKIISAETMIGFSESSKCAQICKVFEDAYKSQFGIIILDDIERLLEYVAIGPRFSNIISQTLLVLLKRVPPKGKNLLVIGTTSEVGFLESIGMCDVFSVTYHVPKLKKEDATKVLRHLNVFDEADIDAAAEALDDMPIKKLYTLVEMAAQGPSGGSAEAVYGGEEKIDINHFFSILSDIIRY

B1: glutelin type B1 (GLUB1) (yeast two-hybrid fusion) (protein, UniProt P14323 1-499)
chain: MASSVFSRFSIYFCVLLLCHGSMAQLFNPSTNPWHSPRQGSFRECRFDRLQAFEPLRKVRSEAGVTEYFDEKNELFQCTGTFVIRRVIQPQGLLVPRYTNIPGVVYIIQGRGSMGLTFPGCPATYQQQFQQFSSQGQSQSQKFRDEHQKIHQFRQGDIVALPAGVAHWFYNDGDAPIVAVYVYDVNNNANQLEPRQKEFLLAGNNNRAQQQQVYGSSIEQHSGQNIFSGFGVEMLSEALGINAVAAKRLQSQNDQRGEIIHVKNGLQLLKPTLTQQQEQAQAQDQYQQVQYSERQQTSSRWNGLEENFCTIKVRVNIENPSRADSYNPRAGRITSVNSQKFPILNLIQMSATRVNLYQNAILSPFWNVNAHSLVYMIQGRSRVQVVSNFGKTVFDGVLRPGQLLIIPQHYAVLKKAEREGCQYIAIKTNANAFVSHLAGKNSVFRALPVDVVANAYRISREQARSLKNNRGEEHGAFTPRFQQQYYPGLSNESESETSE
binding [2]: no binding

B2: glutelin type A2 (GLUA2) (yeast two-hybrid fusion) (protein, UniProt P07730 1-499)
chain: MASINRPIVFFTVCLFLLCDGSLAQQLLGQSTSQWQSSRRGSPRGCRFDRLQAFEPIRSVRSQAGTTEFFDVSNELFQCTGVSVVRRVIEPRGLLLPHYTNGASLVYIIQGRGITGPTFPGCPETYQQQFQQSGQAQLTESQSQSHKFKDEHQKIHRFRQGDVIALPAGVAHWCYNDGEVPVVAIYVTDINNGANQLDPRQRDFLLAGNKRNPQAYRREVEEWSQNIFSGFSTELLSEAFGISNQVARQLQCQNDQRGEIVRVERGLSLLQPYASLQEQEQGQMQSREHYQEGGYQQSQYGSGCPNGLDETFCTMRVRQNIDNPNRADTYNPRAGRVTNLNSQNFPILNLVQMSAVKVNLYQNALLSPFWNINAHSIVYITQGRAQVQVVNNNGKTVFNGELRRGQLLIVPQHYVVVKKAQREGCAYIAFKTNPNSMVSHIAGKSSIFRALPTDVLANAYRISREEAQRLKHNRGDEFGAFTPLQYKSYQDVYNVAESS
binding [2]: no binding

B3: Os60sP0p N-terminus (1-128 aa) (yeast two-hybrid fusion) (domain or fragment, UniProt P41095 1-128)
chain: MAIKRTKAEKKVAYDKKLCQLLDEYTKVLIAVADNVGSNQLQEIRKGLRGDSIVLMGKNTLIRRCIKVHADNTGNKEFLELMPLLVGNVGLIFTKGDLKEVREEVAKYKVGAPARVGLVAPVDVVVPP
binding [3]: binds
binding [2]: binds

B4: 60S acidic ribosomal protein P0 (Os60sP0p), endogenous in rice tissues (protein, UniProt P41095 1-319)
chain: MAIKRTKAEKKVAYDKKLCQLLDEYTKVLIAVADNVGSNQLQEIRKGLRGDSIVLMGKNTLIRRCIKVHADNTGNKEFLELMPLLVGNVGLIFTKGDLKEVREEVAKYKVGAPARVGLVAPVDVVVPPGNTGLDPSQTSFFQVLNIPTKINKGTVEIITPVELIKKGDKVGSSESALLAKLGIRPFSYGLVITNVYDSGSVFSPEVLDLTEDDLMEKFASGVSMVASVSLAISYPTIAAAPHMFLNGYKNVLAVAVETEYSYPHADKIKEYLKDPSKFAVAAPVAADSGAAAPSAAKEEEKKEEPEEESDGDLGMSLFD
binding [4]: binds
binding [5]: binds
binding [6]: binds
binding [7]: no binding (condition: in crude protein extract of leaf)

B5: 60S acidic ribosomal protein P0 (Os60sP0p), full length (yeast two-hybrid fusion) (protein, UniProt P41095 1-319)
chain: MAIKRTKAEKKVAYDKKLCQLLDEYTKVLIAVADNVGSNQLQEIRKGLRGDSIVLMGKNTLIRRCIKVHADNTGNKEFLELMPLLVGNVGLIFTKGDLKEVREEVAKYKVGAPARVGLVAPVDVVVPPGNTGLDPSQTSFFQVLNIPTKINKGTVEIITPVELIKKGDKVGSSESALLAKLGIRPFSYGLVITNVYDSGSVFSPEVLDLTEDDLMEKFASGVSMVASVSLAISYPTIAAAPHMFLNGYKNVLAVAVETEYSYPHADKIKEYLKDPSKFAVAAPVAADSGAAAPSAAKEEEKKEEPEEESDGDLGMSLFD
binding [3]: binds
binding [2]: binds
binding [8]: binds

Further lines, results first:

binding [1]: binds
Molecule: OsSec18, endogenous in rice tissues (from UniProt Q0DGP6 1-743)

binding [2]: binds
B6: Os60sP0p C-terminus (215-320 aa) (yeast two-hybrid fusion) (domain or fragment, UniProt P41095 215-319)
chain: MEKFASGVSMVASVSLAISYPTIAAAPHMFLNGYKNVLAVAVETEYSYPHADKIKEYLKDPSKFAVAAPVAADSGAAAPSAAKEEEKKEEPEEESDGDLGMSLFD
